Experimental data reported in PubChem BioAssay AID2546 (National Center for Advancing Translational Sciences (NCATS), 2010).
About 11,000 (3.5%) of roughly 310,000 compounds were called active. This list was built around the results that the source calls inconclusive (neither active nor inactive); the mix of calls is not that of the screen. Calls come from the whole dose curve; as a rule, active = well fitted inhibition curve with a large enough effect; inconclusive = small, poorly fitted or top-dose-only effect, or effect the other way; inactive = flat fitted curve, though single readings scatter. No potency is given beside an inconclusive call; the fits are too rough.
Potency is the fitted concentration of half-maximal effect; tags give direction and shape of the fitted curve.

Test: VP16 counterscreen qHTS for inhibitors of ROR gamma transcriptional activity;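 note: Gal4-VP16 expression switched on by copper sulfate through the metallothionein promoter; nearly all actives have a fitted effect of over 50% in size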
Settings: Drosophila S2 Gal4-VP16 UAS-luciferase, luminescence, 20 h; series mostly up to 53.6 µM
In the case of `CCCn1c(Nc2ccccc2C)nc2ccccc21`, the Potency is reported as inconclusive [inhibitor, single point].
For `Cc1onc(-c2c(Cl)cccc2Cl)c1C(=O)NC(=S)Nc1sc2c(c1C(N)=O)CCC(C)C2` (stereo not given), the Potency was inconclusive [inhibitor, partial curve].
For `CC(C)(C)NC(=O)CCCSc1nc2ccccc2s1`, the Potency was inconclusive [inhibitor, single point].
For `COc1ccc(S(=O)(=O)CCC(=O)Nc2c(C)cccc2C)cc1`, the Potency was “inactive”.
In the case of `CCN(CC)S(=O)(=O)c1cc(NS(=O)(=O)c2ccccc2)ccc1C`, the Potency is reported as “inactive”.
For `C/C(CC(=O)NC12CC3CC(CC(C3)C1)C2)=N\NC(=O)c1cnccn1`, the Potency was inconclusive [activator, single point].
With `COc1ccc(C(=O)N2CC(c3ccccc3)CC2=O)cc1` (stereo not given) the Potency was inconclusive [inhibitor, partial curve].
With `Nc1ccc2nc3c(=O)n(C4CCCCC4)c(=O)[nH]c3nc2c1` the Potency was inconclusive [activator, single point].
For `O=C(Cn1cc(C(=O)C2CC2)c2ccccc21)NCc1ccccc1`, the Potency was inconclusive [activator, single point].
With `Cc1cc2[nH]c(=O)cc(-c3ccccc3)n2n1` the Potency was active: 17.8 µM.
For `Cc1ccc(S(=O)(=O)/N=C2/C=C(Sc3ncn[nH]3)C(=O)c3ccccc32)cc1`, the Potency was active: 3.55 µM.
With `S=C(NCCCc1ccccc1)Nc1ccc(Cl)cc1` the Potency was active: 5.01 µM.
With `Fc1ccc(-c2nc3n(n2)Cc2ccccc2-3)cc1` the Potency was inconclusive [inhibitor, single point].
In the case of `O=C(NCCN1CCN(C(=O)NC2CCCCC2)CC1)NC1CCCCC1`, the Potency is reported as “inactive”.
For `O=C(CSc1ccc(-c2ccc(F)cc2)nn1)N1CCCc2ccccc21`, the Potency was “inactive”.
In the case of `N#Cc1ccccc1OC[C@H](O)CNCCNC(=O)Nc1ccccc1`, the Potency is reported as “inactive”.
In the case of `O=C(OCC(F)(F)F)[C@H](O)[C@@H](O)C(=O)OCC(F)(F)F`, the Potency is reported as “inactive”.
In the case of `O=C(Nc1ccc(Cl)cc1)ON=C1CCCC1`, the Potency is reported as inconclusive [inhibitor, partial curve].
With `CNC(=S)N/N=C/c1c(C)nn(-c2cccc(Cl)c2)c1Cl` the Potency was active: 1.26 µM.
With `COc1ccccc1-c1cc(C(F)(F)F)nc(S(=O)(=O)CCCC(=O)NCc2ccc(F)cc2)n1` the Potency was inconclusive [inhibitor, single point].
For `Cc1ccccc1OCC(=O)NC(=S)Nc1ccc(N2CCCC2)cc1`, the Potency was active: 8.91 µM.
With `O=C(NCc1cn(-c2ccccc2)nc1-c1ccc(F)cc1)c1cccc([N+](=O)[O-])c1` the Potency was inconclusive [inhibitor, single point].
In the case of `NC(=O)CC(NC(=O)c1ccccc1)c1ccc(NC2CCCCC2)c([N+](=O)[O-])c1` (stereo not given), the Potency is reported as inconclusive [inhibitor, single point].
With `Cc1cc(C)n2nc(SCc3cccc(S(=O)(=O)N(C)C)c3)nc2n1` the Potency was inconclusive [inhibitor, single point].
For `COc1ccc(CCOC(=O)c2ccc(N)c([N+](=O)[O-])c2)cc1`, the Potency was inconclusive [inhibitor, single point].
For `COc1ccc(CNc2ncncc2-c2c(C)noc2C)c(OC)c1`, the Potency was “inactive”.
With `O=C(O)c1ccc(COc2ccc(CO)cc2Cl)cc1` the Potency was inconclusive [inhibitor, single point].
For `S=C(Nc1ccc(Oc2ccccc2)cc1)NC1CCCCCC1`, the Potency was active: 3.16 µM.
For `Clc1ncccc1-c1nc2ccccc2s1`, the Potency was “inactive”.
With `COc1ccccc1NC(=S)NCc1ccccc1` the Potency was inconclusive [inhibitor, single point].
For `COc1c2c(cc3occ(-c4ccc5c(c4)OCO5)c(=O)c13)OC(C)(C)C=C2`, the Potency was inconclusive [inhibitor, partial curve].
For `O=C(NC(=S)Nc1nc(-c2ccc(Br)cc2)cs1)c1cccnc1`, the Potency was inconclusive [inhibitor, single point].
For `CC(=O)N1C(=O)/C(=C2\SC(=S)N(NS(=O)(=O)c3ccc(C)cc3)C2=O)c2ccccc21`, the Potency was “inactive”.
In the case of `Cc1csc(=Nc2ccccc2)n1CCO`, the Potency is reported as “inactive”.
With `CC(=O)c1ccc(-c2cccc([C@H]3[C@@H]4C=CC[C@@H](C)[C@@H]4C(=O)N3Cc3ccccc3)c2)cc1` the Potency was “inactive”.
In the case of `CCOC(=O)c1nn(-c2ccccc2)c(-c2ccccc2)c1C(=O)c1ccccc1`, the Potency is reported as “inactive”.
For `COc1ccccc1-c1nnc(Sc2nc([N+](=O)[O-])nn2C)o1`, the Potency was inconclusive [inhibitor, single point].
In the case of `CC(=O)c1ccc(NC(=O)c2cn(-c3ccccc3)nc2-c2ccncc2)cc1`, the Potency is reported as “inactive”.
In the case of `COc1cc(/C=N/NC(=S)NC(C)C)ccc1OCC(=O)Nc1c(C)cc(C)cc1C`, the Potency is reported as active: 0.501 µM.
In the case of `CN(C)CCCN(C(=O)c1ccc(S(=O)(=O)N2CCOCC2)cc1)c1nc2ccc(F)cc2s1`, the Potency is reported as “inactive”.
For `CCCn1nc(NC(=O)C(C)C)c2cc3cc(OC)ccc3nc21`, the Potency was “inactive”.
In the case of `CC(C)CCOc1ccc(C(CC(N)=O)C(=O)O)cc1` (stereo not given), the Potency is reported as “inactive”.
With `CC(CCc1ccccc1)NC(=S)NC1CCCCC1` (stereo not given) the Potency was active: 15.8 µM.
With `Cc1ccccc1C(=O)O/N=C(\N)Cc1cccs1` the Potency was inconclusive [inhibitor, partial curve].
For `COc1ccc(Nc2ncccc2C(=O)O)cc1`, the Potency was inconclusive [inhibitor, partial curve].
For `N#Cc1c(NC(=O)CSc2nnnn2C2CCCCC2)sc2c1CCCC2`, the Potency was “inactive”.
In the case of `COc1cc(/C=C2\CCCc3c2nc2ccccc2c3C(=O)O)cc([N+](=O)[O-])c1O`, the Potency is reported as “inactive”.
For `O=C1Nc2ccccc2N(O)N1c1cc(-c2ccccc2)[nH]n1`, the Potency was “inactive”.
For `O=C(N/N=C/c1ccc(-c2ccccc2[N+](=O)[O-])o1)c1cccnc1`, the Potency was inconclusive [inhibitor, single point].
With `COCC(=O)n1nc(-c2ccccc2)nc1NCc1ccc(N(C)C)cc1` the Potency was inconclusive [activator, full curve, poor fit].
